# Source: PubChem BioAssay (NCATS)
# The shares of active, inactive and inconclusive entries below differ from those in the screen. Potencies of inconclusive entries are doubtful fits and often do not repeat. Activity calls are given as the source filed them. The call rests on the fitted dose curve; in most records, active means well fitted inhibition curve with a large enough effect; inconclusive means small, poorly fitted or top-dose-only effect; inactive means no such curve, though single readings can be large or run the other way.
# Biological target: Retinaldehyde dehydrogenase 3 (Homo sapiens) (UniProt P47895)
# Assay: qHTS for Inhibitors of the Aldehyde Dehydrogenase Family (ALDH1A3) Primary screen (AID 2061315);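 on activity change, negative = inhibition: plate controls were DMSO vehicle for no effect and reference inhibitor for full effect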
# Details: ALDH inhibition qHTS; activity change, negative = inhibition: at 56 µM (top of the series) unless noted
# Potency means the concentration at half of the fitted maximal effect; tags describe the fitted curve by direction and shape.
Compound,Potency,"activity change, negative = inhibition"
Cc1ccnc(NC(=S)N2CCc3cc(C(F)(F)F)ccc3C2)c1,"inconclusive: 6.31 µM [inhibitor, single point]",
Cc1ccc(C2Nc3cccc4cccc(c34)N2)s1,"inconclusive: 2.51 µM [inhibitor, full curve]",
C/C=C1/CC2C(=O)Nc3cc(O)c(OC)cc3C(=O)N2C1 (stereo not given),"inconclusive: 10 µM [inhibitor, single point]",
O=C1C(Cl)=C(N2CCOCC2)C(=O)N1c1ccc(Cl)c(Cl)c1,"inconclusive: 8.91 µM [inhibitor, partial curve, poor fit]",
Cc1csc(CNc2ncnc3ccc(-c4ccc(CO)o4)cc23)n1,,inactive: 4.57%
O=[N+]([O-])c1ccccc1NCc1ccc(O)c2ncccc12,"inconclusive: 11.2 µM [inhibitor, partial curve, poor fit]",
COc1cc(/C=C/C(=O)NCCn2c(C(F)(F)F)cc3ccccc32)cc(OC)c1OC,,inactive: -2.84%
COc1ccnc(CS(=O)c2nc3cc(OC(F)F)ccc3[nH]2)c1OC (stereo not given),active: 31.6 µM,
CO[C@@H](Cc1ccc(OCCc2nc(-c3ccccc3)oc2C)c2ccsc12)C(=O)O,,inactive: -0.0465%
CC(C)(C)OC(=O)N1CCN(c2ccc(NCc3ncc(-c4ccc(C#N)cc4)o3)cc2)CC1,"inconclusive: 10 µM [inhibitor, partial curve, poor fit]",
O=C(O)c1cccc(-c2noc(-c3ccc(Cl)cc3)n2)c1,"inconclusive: 0.282 µM [inhibitor, full curve, poor fit]",
CC(C)CC(=O)n1cc(C(N)=O)c(=O)cc1C(O)c1ccccc1 (stereo not given),,inactive: -7.23%
Cc1ccc(Cc2c(C)nc3nc(SCC(=O)NCCN4CCNCC4)nn3c2C)cc1,,inactive: 0.77%
Oc1ccc(CNc2ccc(C(F)(F)F)cc2Cl)c2cccnc12,"inconclusive: 15.8 µM [inhibitor, single point]",
Oc1cc(NCCN2CCOCC2)cc2cccnc12,"inconclusive: 0.708 µM [inhibitor, full curve]",
Oc1cccc2cc(Nc3ccccc3)cnc12,,inactive: 12.8%
N#Cc1ccc(-c2ccc(-c3nc4ccccc4c(=O)[nH]3)o2)cc1,,inactive: -1.47%
Oc1cc(NCc2ccccc2)cc2cccnc12,"inconclusive: 0.562 µM [inhibitor, full curve, poor fit]",
Cc1ccc(NS(=O)(=O)c2cc3c(cc2N2CCCC2)NC(=O)CC3)cc1C,"inconclusive: 10 µM [inhibitor, partial curve, poor fit]",
N#Cc1ccc(S(=O)(=O)Nc2cnccc2C(=O)Nc2nc(-c3ccccc3)cs2)cc1,"inconclusive: 1.26 µM [inhibitor, partial curve, poor fit]",
Cc1ccnc(NC(=S)N2CCN(c3ccccc3C(F)(F)F)CC2)c1,"inconclusive: 2.51 µM [inhibitor, partial curve, poor fit]",
Cc1cc(C)nc(NC(=S)N2CCN(c3ccc(-c4ccccc4)cc3)CC2)c1,"inconclusive: 28.2 µM [inhibitor, single point]",
Cc1ccc(NC(=O)CN2C(=O)N/C(=C\c3cccn3-c3cccc(C(=O)O)c3)C2=O)cc1,inactive,
Cc1ccnc(NC(=S)N2CCN(c3ccc(Cl)cc3)CC2)c1,"inconclusive: 3.16 µM [inhibitor, single point]",
O=C(O)c1cccc(-c2noc(-c3ccccc3Cl)n2)c1,"inconclusive: 0.1 µM [inhibitor, full curve, poor fit]",
O=C(O)c1ccc(Cc2c(-c3cccc(-c4ccccc4)c3)[nH]n(-c3nc(C(=O)O)cs3)c2=O)cc1,"inconclusive: 11.2 µM [inhibitor, partial curve, poor fit]",
Cc1ccnc(NC(=S)N2CCN(c3ccc(C(F)(F)F)cc3[N+](=O)[O-])CC2)c1,"inconclusive: 1.26 µM [inhibitor, partial curve]",
O=C(OCC#CCSc1nnc(-c2ccc(F)cc2)o1)c1ccc(F)cc1,,inactive: -5.68%
C[C@@H]1O[C@@H](O[C@H]2[C@H](O[C@H]3[C@H](O[C@H]4CC[C@@]5(C)C(CC[C@]6(C)C5CC=C5[C@@H]7CC(C)(C(=O)O)C[C@@H](O)[C@]7(C)CC[C@]56C)[C@@]4(C)CO)O[C@H](C(=O)O)[C@@H](O)[C@@H]3O)O[C@H](CO)[C@H](O)[C@@H]2O)[C@H](O)[C@H](O)[C@H]1O (stereo not given in full),"inconclusive: 3.55 µM [inhibitor, single point]",
Cc1nc(NCc2ccccc2)c2nc(-c3ccccc3)n(CCCN(C)C)c2n1,,inactive: 2.33%
